Hit rate of the full screen: of about 390,000 compounds, about 4,000 (1%) were called active. The shares of active, inactive and inconclusive entries below differ from those in the screen. Calls follow the shape of the dose curve; as a rule, active = well fitted inhibition curve with a large enough effect; inconclusive = small, poorly fitted or top-dose-only effect; inactive = no such curve, though single readings can be large or run the other way. A potency beside an inconclusive call is a rough fit, not a confirmed value.
The molecules below were run against Thioredoxin reductase 1, cytoplasmic (Rattus norvegicus) (UniProt O89049) (assay: qHTS Assay for Inhibitors of Mammalian Selenoprotein Thioredoxin Reductase 1 (TrxR1): qHTS). Settings: recombinant rTrxR1, NADPH fluorescence consumption, selenite substrate; series mostly up to 114 µM.
Chain of UniProt O89049 (O89049 whole entry, looked up): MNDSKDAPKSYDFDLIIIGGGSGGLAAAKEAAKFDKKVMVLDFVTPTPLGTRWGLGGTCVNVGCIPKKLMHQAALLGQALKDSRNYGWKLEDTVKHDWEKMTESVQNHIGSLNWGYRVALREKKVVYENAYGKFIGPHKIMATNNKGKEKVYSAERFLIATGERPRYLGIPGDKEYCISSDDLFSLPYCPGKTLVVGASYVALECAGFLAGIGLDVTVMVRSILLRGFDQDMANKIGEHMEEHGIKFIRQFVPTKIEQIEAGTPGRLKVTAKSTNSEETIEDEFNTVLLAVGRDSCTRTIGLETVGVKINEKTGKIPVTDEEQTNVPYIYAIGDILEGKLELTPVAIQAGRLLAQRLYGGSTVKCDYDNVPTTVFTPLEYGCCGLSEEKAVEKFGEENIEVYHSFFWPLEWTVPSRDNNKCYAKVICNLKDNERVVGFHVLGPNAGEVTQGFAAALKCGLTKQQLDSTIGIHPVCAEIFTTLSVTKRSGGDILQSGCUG
In short: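 Rat TrxR1 (90 nM in the dispensed reagent) was pre-reduced with 400 uM NADPH for 5 min at room temperature, then incubated with compound for 15 min. After 400 uM selenite was added, NADPH fluorescence (Ex 340/Em 450 nm) was followed for 8 min.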
Also: nearly all actives have a fitted effect of over 65% in size.
Potency is read from the fitted curve at half-maximal effect; tags tell the direction and shape of the fitted curve.

| SMILES | Potency |
| --- | --- |
| CC(C)c1ccc(/C=C2\SC(=O)N(CC(=O)NCCCn3ccnc3)C2=O)cc1 | inconclusive: 89.1 µM [inhibitor, partial curve, poor fit] |
| Cc1ccc(Cl)cc1N1CCN(C(=O)Cn2cnc3onc(-c4ccc(F)cc4)c3c2=O)CC1 | inactive |
| O=C1OC(c2ccccc2)=C/C1=C/N1CCCCC1 | inconclusive: 28.2 µM [inhibitor, partial curve] |
| Cc1ccc(CNC(=O)CSc2ccc(-c3ccco3)nn2)cc1 | inconclusive: 50.1 µM [inhibitor, partial curve] |
| Cc1cc(/C=N/O)c(C)n1-c1ccccc1 | inactive |
| COc1ccc(C(=O)CSc2nnc(COc3ccccc3)n2Cc2ccco2)cc1 | inconclusive: 31.6 µM [inhibitor, partial curve] |
| COc1ccc2c(c1)C1C=CCC1C(c1cc3c(cc1Br)OCO3)N2 (centres undefined) | inconclusive: 14.1 µM [inhibitor, full curve, poor fit] |
| O=C(Cn1c(=O)c2sccc2n(Cc2ccc([N+](=O)[O-])cc2)c1=O)NCCc1ccccc1 | inconclusive: 100 µM [inhibitor, single point] |
| CCCc1ccc(C2C3=C(CC(C)(C)CC3=O)NC3=C2C(=O)c2ccccc23)cc1 (centres undefined) | inconclusive: 3.98 µM [inhibitor, full curve] |
| CCCCCCSc1ccc(-c2nc3cc(C)ccn3c2NC2CCCCC2)cc1 | inconclusive: 39.8 µM [inhibitor, single point] |
| O=C(/C=C/c1c(F)cccc1Cl)c1ccc(F)cc1 | inconclusive: 15.8 µM [inhibitor, partial curve, poor fit] |
| O=c1c2ccccc2n2c(=S)[nH]nc2n1-c1ccccc1 | inconclusive: 14.1 µM [inhibitor, partial curve, poor fit] |
| CC1CCC/C(=C\Nc2ccc(O)cc2)C1=O (centres undefined) | active: 20 µM |
| CCn1c(C)cc2c(c1=O)C(c1ccccc1Br)C(C#N)=C(N)O2 (centres undefined) | inconclusive: 15.8 µM [inhibitor, full curve] |
| CCOC(=O)c1ccc(S(=O)(=O)Nc2cc(C(C)(C)C)no2)cc1 | inactive |
| Cc1cccc2c1ncc1c(=O)n(-c3ccccc3)[nH]c12 | inactive |
| CCCN(CCC)C(=O)c1cc2c(=O)n3cccc(C)c3nc2s1 | inconclusive: 89.1 µM [inhibitor, single point] |
| CC1=NN(C(N)=S)C(=O)C1N=Nc1cccc([N+](=O)[O-])c1 (centres undefined) | inconclusive: 14.1 µM [inhibitor, partial curve] |
| O=C(NC1CCCCC1)C(c1ccncc1)N(Cc1ccccc1)C(=O)c1ccc(-c2ccccc2)[nH]1 (centres undefined) | inconclusive: 79.4 µM [inhibitor, partial curve, poor fit] |
| COc1ccccc1C1C=C(c2ccc(Cl)cc2)Nc2nc(N3C(=O)CCC3=O)nn21 (centres undefined) | inconclusive: 20 µM [inhibitor, single point] |
| CC(C)=CCSc1nnc([C@@H](NC(=O)OC(C)(C)C)C(C)C)o1 | inconclusive: 15.8 µM [inhibitor, full curve] |
| COC(=O)CSc1[nH]c2ccc(Br)cc2c1[N+](=O)[O-] | active: 11.2 µM |
| CCOc1ccccc1NC(=S)NC(=O)CCc1ccccc1 | inconclusive: 79.4 µM [inhibitor, single point] |

| SMILES | Potency |
| --- | --- |
| COc1cc(/C=N/NC(=O)c2cc(-c3ccco3)nc3ccccc23)cc(OC)c1O | active: 12.6 µM |
| CC1(C)CC(=O)C=C(N2CCNCC2)C1 | inconclusive: 39.8 µM [inhibitor, partial curve, poor fit] |
| CCOc1ccc(C2c3c(oc4ccccc4c3=O)C(=O)N2CCCN2CCOCC2)cc1 (centres undefined) | inconclusive: 56.2 µM [inhibitor, partial curve, poor fit] |
| COCCn1c(SCC#N)nnc1-c1ccccc1 | inactive |
| Cc1ccc2sc(N(Cc3cccnc3)C(=O)CCS(=O)(=O)c3ccccc3)nc2c1C | inconclusive: 10 µM [inhibitor, partial curve, poor fit] |
| CCOC(=O)N1CCN(C(=O)CS(=O)Cc2nc(-c3cccc(C)c3)oc2C)CC1 (centres undefined) | inconclusive: 12.6 µM [inhibitor, partial curve] |
| Cc1cc(=O)oc2c(CN3CCN(C)CC3)c(O)c(Cl)cc12 | inconclusive: 63.1 µM [inhibitor, single point] |
| COc1ccc(-n2ncc3c2CC(C)(C)CC3NC(=O)c2oc(C)cc2C)cc1 (centres undefined) | inactive |
| C/C(=N\NC(=O)C1CC1(c1ccccc1)c1ccccc1)c1cccc([N+](=O)[O-])c1 (centres undefined) | inactive |
| Cc1cccc(CN2C(=O)c3ccccc3Sc3ccc(C(=O)NCc4ccco4)cc32)c1 | inactive |
| COC(=O)C1=C(C)N(C)C(=O)/C1=C\c1cccs1 | inconclusive: 39.8 µM [inhibitor, single point] |
| O=C(C#Cc1ccccc1)c1cccc([N+](=O)[O-])c1 | active: 0.1 µM |
| CC(C)c1ccc(S(=O)(=O)/N=C2\C=C(NS(=O)(=O)c3ccccc3)C(=O)c3ccccc32)cc1 | inconclusive: 44.7 µM [inhibitor, partial curve, poor fit] |
| Cc1ccc(C(=O)O/N=C(\N)c2ccccn2)cc1 | inactive |
| CC(=O)c1ccc([C@H]2C[C@@]34CN(C(=O)OC(C)(C)C)S(=O)(=O)[C@H]3C[C@H]2O4)cc1 | inconclusive: 10 µM [inhibitor, partial curve] |
| CN1C(=S)N(c2ccccc2)C(=O)/C1=C/c1ccco1 | inconclusive: 79.4 µM [inhibitor, single point] |
| CCn1cc(CNC(=O)c2cc(-c3ccc(C)cc3)nc3ccc(Br)cc23)c(C)n1 | inactive |
| N=c1n(CCCOc2ccc(Br)cc2)c2ccccc2n1CC(N)=O | inconclusive: 7.94 µM [inhibitor, full curve] |
| COc1ccc(C(=O)N/N=C(\C)CC(=O)Nc2ccc3c(c2)OCO3)cc1 | inconclusive: 28.2 µM [inhibitor, single point] |
| CC(=O)Nc1ccc(S(=O)(=O)N(C)CC(=O)N/N=C/c2ccncc2)cc1 | inconclusive: 25.1 µM [inhibitor, single point] |
| O=C(COc1ccc(Cc2ccccc2)cc1)c1ccc(F)cc1 | inactive |
| COc1ccccc1Cc1nc(-c2ccc(Br)o2)no1 | inconclusive: 31.6 µM [inhibitor, single point] |
| Cc1cccc(S(=O)(=O)Nc2nc3ccccc3nc2NCc2ccco2)c1 | inconclusive: 44.7 µM [inhibitor, single point] |

| SMILES | Potency |
| --- | --- |
| CC(=O)N1CCc2[nH]c3ccc(C)cc3c2C1 | inactive |
| Cc1cccc(OC(=O)NCCOC(=O)N(O)c2ccc(Cl)cc2)c1 | inconclusive: 89.1 µM [inhibitor, partial curve, poor fit] |
| CC1(C)Cc2c(C#N)c(N3CCN(C(=O)c4ccccc4)CC3)nc(Cc3ccccc3)c2CO1 | inactive |
| Fc1ccc(NC(=S)Nc2cccnc2)cc1 | inconclusive: 56.2 µM [inhibitor, single point] |
| O=C(CSc1ccc(-c2ccco2)nn1)NCc1ccccc1 | inconclusive: 50.1 µM [inhibitor, partial curve, poor fit] |
| COc1cccc(Nc2nc3cc(C)ccc3nc2NS(=O)(=O)c2ccc(Cl)cc2)c1 | inactive |
| Cn1c(C(=O)NCCN2CCCCCC2)cc2c(=O)n(C)c3ccccc3c21 | inconclusive: 56.2 µM [inhibitor, partial curve, poor fit] |
| Cc1cc(-c2c(C)[nH]n(-c3ccccc3)c2=O)n[nH]1 | inconclusive: 89.1 µM [inhibitor, partial curve, poor fit] |
| O=C(c1cnn(C(=O)c2ccco2)c1)c1cc(F)ccc1O | inconclusive: 50.1 µM [inhibitor, partial curve] |
| COc1ccc(S(=O)(=O)NCc2ccccn2)cc1NC(=O)c1ccc(C)cc1 | inactive |
| CCOc1cc(/C=C2\CCCc3c2nc2ccccc2c3C(=O)O)ccc1OC | active: 79.4 µM |
| Clc1ccc(C[n+]2csc3ccccc32)cc1 | inconclusive: 31.6 µM [inhibitor, partial curve] |
| COc1cc([N+](=O)[O-])ccc1NC(=S)NNC(=O)CCC(=O)Nc1ccccc1Cl | inconclusive: 8.91 µM [inhibitor, partial curve, poor fit] |
| CCc1nnc(NC(=O)CCS(=O)(=O)c2ccccc2)s1 | inconclusive: 79.4 µM [inhibitor, single point] |
| Fc1cnc(N2CCN(c3ccccc3)CC2)nc1N1CCN(c2ccccc2)CC1 | inactive |
| O=C(NCC(=O)N1CCN(c2ncccn2)CC1)c1ccc(F)cc1 | inactive |
| CCc1cc(=O)oc2c3c(cc(OCC(=O)NCCCC(=O)O)c12)OC(C)(C)CC3 | inconclusive: 44.7 µM [inhibitor, partial curve] |
| O=C(CCN1CCN(C(=O)c2ccccc2)CC1)c1ccc(Br)cc1 | inconclusive: 6.31 µM [inhibitor, full curve] |
| CCCN(CCC)C1=N/C(=C\c2ccco2)C(=O)N1c1ccccc1 | active: 25.1 µM |
| COc1ccccc1C(=O)NNC1=C(C(=O)C(F)(F)F)CCC1 | active: 44.7 µM |
| CC1=NN(C(N)=S)C(=O)C1N=Nc1ccccc1 (centres undefined) | inconclusive: 63.1 µM [inhibitor, partial curve, poor fit] |
| O=C(N/N=C/c1ccc(Br)o1)c1ccc2c(c1)OCCO2 | inconclusive: 63.1 µM [inhibitor, single point] |
| Cc1cc(=O)oc2c3c(cc(OCC(=O)Nc4ccc(CCO)cc4)c12)OC(C)(C)CC3 | inconclusive: 50.1 µM [inhibitor, partial curve] |

— PubChem BioAssay AID588453 (National Center for Advancing Translational Sciences (NCATS), 2011)
